The other results are listed elsewhere or left out.

The assay addresses T1, OsWOX13 (Oryza sativa, UniProt Q5QMM3 1-267).
T1 sequence: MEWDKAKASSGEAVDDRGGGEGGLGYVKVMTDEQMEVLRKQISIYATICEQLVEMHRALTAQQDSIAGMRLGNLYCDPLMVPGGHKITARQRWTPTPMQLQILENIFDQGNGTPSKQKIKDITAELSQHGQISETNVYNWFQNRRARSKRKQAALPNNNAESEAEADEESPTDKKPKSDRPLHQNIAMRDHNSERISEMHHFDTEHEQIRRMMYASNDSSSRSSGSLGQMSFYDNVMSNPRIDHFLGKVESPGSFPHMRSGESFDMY
Briefly: protein-binding microarray (RPBM); PBS, 2% BSA, 51.3 ng/ul salmon testes DNA, 50 uM zinc acetate, 200 nM TF, 25 C, 1 h; high values mean tight binding. The note with it: protein: recombinant; tags: N-terminal polyhistidine and DsRed monomer fusion (pET32a); label: CyDye5-dUTP incorporated in the synthesized complementary strand; 3' TTTTT single-stranded linker to array surface; dsDNA, one strand shown. A digest of the protocol:
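Per-feature fluorescence intensity (arbitrary units), read on an Axon 4000B scanner, is the binding signal. Transcription factors carrying an N-terminal polyhistidine tag and DsRed fusion were expressed in E. coli BL21-CodonPlus and purified on Ni–NTA. A custom Agilent array, made double-stranded by primer extension with Cy5-dUTP and blocked with 2% BSA, was incubated with 200 nM protein in PBS, 2% BSA, salmon testes DNA and 50 µM zinc acetate at 25 °C for 1 h and then washed.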
With “CTTGGGATTATTATAATCTAGATTATTGAGTTAGATTACTCGGAGTCACCTAGTGCAG”, the binding signal was 18700 fluorescence intensity (a.u.).
With “TGCAGTCCATTTATCACTTGATTATCTGGGAATTGAAGAGCGGAGTCACCTAGTGCAG” the figure was 11300 fluorescence intensity (a.u.).
For “TCTTCCCTACACACATCAATCAACGGGCAAAGCAAGCGAGCGGAGTCACCTAGTGCAG”, the binding signal is 7970 fluorescence intensity (a.u.).
On to “TATATGACTGGATTGTTATCATTTCACAGAAACAGCGCTCCGGAGTCACCTAGTGCAG”, for which the binding signal is 15000 fluorescence intensity (a.u.).
With “GGATAGAGTAATTAAAGATTTAAATGCACATGCAAATATGCGGAGTCACCTAGTGCAG” the figure was 5660 fluorescence intensity (a.u.); with “CACTGAAACAAAACCTGATTTGTCAATTGTCATGTACTCACGGAGTCACCTAGTGCAG”, 5890 fluorescence intensity (a.u.).
To “CTTCATCAATCATCATATGCCGAACACAACCTTAATACTGCGGAGTCACCTAGTGCAG” belongs 20100 fluorescence intensity (a.u.); to “CCTAACAATCGGTCAATCTAGTAGCACAAGACATTCCAAACGGAGTCACCTAGTGCAG”, 3730 fluorescence intensity (a.u.); to “CGTCGCCTCCATTATATATTTTGTACACACCTACAGTTGCCGGAGTCACCTAGTGCAG”, 4010 fluorescence intensity (a.u.).
With “ACACAAGATTGACTACATGTGTATCGAGAAATGTAAATATCGGAGTCACCTAGTGCAG” the figure was 9350 fluorescence intensity (a.u.).
For “ATAATTATTATGTCTGGTAGGATAGGATTTAGATGGTAAGCGGAGTCACCTAGTGCAG”, the binding signal was 5670 fluorescence intensity (a.u.).
With “TGAGATAATTAACATGTACTCTAGTCACTAACTTGCAATTCGGAGTCACCTAGTGCAG” the figure was 13500 fluorescence intensity (a.u.).
Regarding “ATCTGATTACCCTTTCTCACTAGACACGTGCCAAAACTAGCGGAGTCACCTAGTGCAG”, the binding signal is 14700 fluorescence intensity (a.u.).
Regarding “CATGATGGGAAGTTAGTTGACCATCCAGTTGTCAAGTTTGCGGAGTCACCTAGTGCAG”, the binding signal is 10700 fluorescence intensity (a.u.).
Consider “TATGACAGATAAGCATAAATATAAGCGAAAATATGAGGATCGGAGTCACCTAGTGCAG”, for which the binding signal was 6070 fluorescence intensity (a.u.).
As for “AATGATAGGGAACTGTCGGAGATAGGAAAGACGGCGGGACCGGAGTCACCTAGTGCAG”, the binding signal was 14800 fluorescence intensity (a.u.).
Turning to “CATACAGTTAATTAACACCATGCATACAACATTTACACTCCGGAGTCACCTAGTGCAG”, the binding signal is 17600 fluorescence intensity (a.u.).
To “GGTTGGGGAAGGAGAGGAGAGGAGAGGAGAGGAGAGGAGACGGAGTCACCTAGTGCAG” belongs 9690 fluorescence intensity (a.u.).
With “CATCGATCAGATCAAATCAAATCAAATCAACTCAAGCGCCCGGAGTCACCTAGTGCAG”, the binding signal was 7760 fluorescence intensity (a.u.).
With “GTCAGCTGATTGCTTATTCTTATATTATAAGACAGATGAGCGGAGTCACCTAGTGCAG” the figure was 38800 fluorescence intensity (a.u.).
To “TTAGTGCTTAAATGATTAATCTATGGTCCAAATTATCTTTCGGAGTCACCTAGTGCAG” belongs 6040 fluorescence intensity (a.u.); to “GATGATATGCCACAGTGTGATTAACCAAGATCAGTTTTCGCGGAGTCACCTAGTGCAG”, 4310 fluorescence intensity (a.u.); to “ACCGTTTGATTGCGTCAAGATTCGTGCTTACACGGGTGGGCGGAGTCACCTAGTGCAG”, 38500 fluorescence intensity (a.u.).
To “ACCTAAGTTTGGATCCAATCATTCCTATCCGTCTCCGTTGCGGAGTCACCTAGTGCAG” belongs 5730 fluorescence intensity (a.u.); to “TGTGGATTGGTTTGGGGTGGATGCAGGCTGAGTAAAATAACGGAGTCACCTAGTGCAG”, 6610 fluorescence intensity (a.u.); to “GACTAAACGTATAAATTATTCTAGCTGTTGTTACACTGATCGGAGTCACCTAGTGCAG”, 4180 fluorescence intensity (a.u.).
“TTATAGTGTCTAATTAATTTAGTGTAAATGTATTCTCAATCGGAGTCACCTAGTGCAG”: the binding signal was 16100 fluorescence intensity (a.u.).
To “ATTGTCAAATCATAACGCAATTAGGCTCAAAGAATTCGTCCGGAGTCACCTAGTGCAG” belongs 11200 fluorescence intensity (a.u.); to “TCCCAATCTTCTCTATCTCATTCTCCTCAAACATAGCCTTCGGAGTCACCTAGTGCAG”, 3910 fluorescence intensity (a.u.); to “AGCGTGATTGACCTCTCGTTATCGTGGACTTCATTCTAAACGGAGTCACCTAGTGCAG”, 42500 fluorescence intensity (a.u.).
Turning to “TAAGATTTAAATTTTGTAGACAATATAAGCATTTATAGGACGGAGTCACCTAGTGCAG”, the binding signal was 7740 fluorescence intensity (a.u.).
With “CCCCAATCACCCCAATCCTTCTCCCGGCCGTAGACCATTTCGGAGTCACCTAGTGCAG” the figure was 7470 fluorescence intensity (a.u.); with “ATTCTTTTCTCAATCAATAACAACTCTCCACCATTTAATTCGGAGTCACCTAGTGCAG”, 7830 fluorescence intensity (a.u.); with “TTAATTTTCTTGTAAGTTTTCAATCTAATGGATTTGAAGCCGGAGTCACCTAGTGCAG”, 5160 fluorescence intensity (a.u.).
For the sequence “TTTAATCATTGACCGAATTAAACTGACTAGGAGTGAAATCCGGAGTCACCTAGTGCAG”, the binding signal is 19700 fluorescence intensity (a.u.).
To “GTTATCCATCTATTGCAATCATCAGAAACAATAGCCTCAGCGGAGTCACCTAGTGCAG” belongs 5990 fluorescence intensity (a.u.); to “ACAGAGAGAGGTAGGTGATTGATAATAAGAAAGAAGGGAACGGAGTCACCTAGTGCAG”, 13000 fluorescence intensity (a.u.).
To “TTCAAAAGGTGTTGTGTATGAGCTATTGTGGGCTTGTGGCCGGAGTCACCTAGTGCAG” belongs 9470 fluorescence intensity (a.u.); to “ACCGAGTGACATGACTGATAAACATATCTATATCTACTTACGGAGTCACCTAGTGCAG”, 6910 fluorescence intensity (a.u.); to “CACGATTATAATCAACTTACACAATCCATAATGCCCCATCCGGAGTCACCTAGTGCAG”, 17400 fluorescence intensity (a.u.).
To “GTCCACTAATTACTAAATTGCCGACTGCTAAAACAAAATGCGGAGTCACCTAGTGCAG” belongs 34300 fluorescence intensity (a.u.); to “GTTTATTGTACTGGATTAGTTTGTTTATTTTAAAACGAAGCGGAGTCACCTAGTGCAG”, 3230 fluorescence intensity (a.u.).

The values above are taken from paper PMC7819943, “Rice protein-binding microarrays: a tool to detect cis-acting elements near promoter regions in rice”.
